This experiment concerns HIV-1 isolate (X4). It counts as cell-based. The note with it: unmodified synthetic 16mer peptides added to cells (cell line not stated) 24 hrs prior to HIV infection, up to 50 ug/mL; data not shown.

As to VDGIPVEWDADARAPA [S158E], the HIV replication entry is given as “Neither peptide inhibited HIV replication”.

The record behind these values is patent US8268778B2, “Flavivirus NS5A proteins for the treatment of HIV” (priority 2007, dated 2012).
